Experimental data: PMC5560758, “SCF^AtPP2-B11 modulates ABA signaling by facilitating SnRK2.3 degradation in Arabidopsis thaliana” (PLoS Genetics, 2017)
Results are given in words; binding and its absence hold for the method and conditions named. For some assays here: Binding seen in cells or lysates may run through a third protein. Some binding calls cover weakened binding; strength is not graded here. Where a sequence is shown, tags or fusion partners need not be part of it. Blank lines part the entries; values can stand above or below the binder they belong to.

The chains behind the UniProt entries cited, without tags or fusion partners.
UniProt Q39255: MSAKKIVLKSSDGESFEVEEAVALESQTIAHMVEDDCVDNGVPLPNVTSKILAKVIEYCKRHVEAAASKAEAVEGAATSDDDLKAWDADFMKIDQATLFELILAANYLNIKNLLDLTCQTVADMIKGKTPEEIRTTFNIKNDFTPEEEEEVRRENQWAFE
UniProt Q9FHW7: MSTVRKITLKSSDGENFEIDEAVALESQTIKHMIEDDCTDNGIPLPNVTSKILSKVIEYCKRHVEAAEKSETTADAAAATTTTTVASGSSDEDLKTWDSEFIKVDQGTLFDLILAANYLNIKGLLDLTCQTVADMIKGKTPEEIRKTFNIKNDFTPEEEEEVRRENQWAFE

Key:
[1] = target: T1, GST-AtPP2-B11 (Arabidopsis thaliana) (UniProt Q949S5); test: pull-down; AtPP2-B11-GST held on GST beads, incubated with MBP-SnRK2s 2 h at room temperature or 4°C overnight; washed four times; anti-MBP blot; both purified
T1 sequence: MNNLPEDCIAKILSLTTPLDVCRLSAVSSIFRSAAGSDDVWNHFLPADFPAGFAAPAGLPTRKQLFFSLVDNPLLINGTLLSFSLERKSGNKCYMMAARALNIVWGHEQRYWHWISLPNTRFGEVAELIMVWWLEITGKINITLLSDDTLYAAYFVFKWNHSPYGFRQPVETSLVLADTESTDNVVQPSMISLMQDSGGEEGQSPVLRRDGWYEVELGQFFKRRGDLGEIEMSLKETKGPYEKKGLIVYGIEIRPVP

[2] = target: ASK1 (Arabidopsis Skp1-like protein), yeast two-hybrid fusion (Arabidopsis thaliana) (UniProt Q39255); test: two-hybrid; pairwise; AD (pGADT7) and BD (pGBKT7) constructs co-transformed into yeast AH109; growth on SD lacking Trp, Leu, His and Ade, 30°C, 3-5 days
[3] = target: ASK2 (Arabidopsis Skp1-like protein), yeast two-hybrid fusion (Arabidopsis thaliana) (UniProt Q9FHW7); test: as above
[4] = target: T2, SnRK2.3, yeast two-hybrid fusion (Arabidopsis thaliana) (UniProt Q39193); test: as above
T2 sequence: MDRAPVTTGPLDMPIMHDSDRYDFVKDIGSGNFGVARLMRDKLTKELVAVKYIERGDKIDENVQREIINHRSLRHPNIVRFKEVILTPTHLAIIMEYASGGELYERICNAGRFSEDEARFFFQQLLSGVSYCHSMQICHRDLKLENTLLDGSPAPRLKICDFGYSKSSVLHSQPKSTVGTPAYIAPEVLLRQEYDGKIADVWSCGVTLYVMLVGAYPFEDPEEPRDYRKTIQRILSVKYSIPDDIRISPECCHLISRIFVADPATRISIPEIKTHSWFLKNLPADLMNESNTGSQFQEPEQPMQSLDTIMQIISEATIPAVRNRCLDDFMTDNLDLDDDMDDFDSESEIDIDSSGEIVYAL

[5] = target: ASK1-YFP^C (Arabidopsis thaliana) (UniProt Q39255); test: split reporter; BiFC; YFP^N and YFP^C fusions co-expressed in N. benthamiana leaves by Agrobacterium infiltration; confocal imaging 36-48 h after infiltration
[6] = target: ASK2-YFP^C (Arabidopsis thaliana) (UniProt Q9FHW7); test: as above
[7] = target: T3, SnRK2.3-YFP^C (Arabidopsis thaliana) (UniProt Q39193); test: as above
T3 sequence: T2 sequence

[8] = target: T4, SnRK2.3-FLAG (Arabidopsis thaliana) (UniProt Q39193); test: co-IP; stably transformed Arabidopsis seedlings (7-day-old in the legend, ten-day-old in the methods) with AtPP2-B11-Myc and SnRK2-Flag; extract incubated with anti-Flag M2 agarose, 4°C 2 h or room temperature 1 h; 150 mM NaCl, pH 7.4, Triton X-100; anti-Myc blot
T4 sequence: T2 sequence

binding [1]: no binding
B1: MBP-SnRK2.2 (protein, UniProt Q39192 1-362)
chain: MDPATNSPIMPIDLPIMHDSDRYDFVKDIGSGNFGVARLMTDRVTKELVAVKYIERGEKIDENVQREIINHRSLRHPNIVRFKEVILTPSHLAIVMEYAAGGELYERICNAGRFSEDEARFFFQQLISGVSYCHAMQICHRDLKLENTLLDGSPAPRLKICDFGYSKSSVLHSQPKSTVGTPAYIAPEILLRQEYDGKLADVWSCGVTLYVMLVGAYPFEDPQEPRDYRKTIQRILSVTYSIPEDLHLSPECRHLISRIFVADPATRITIPEITSDKWFLKNLPGDLMDENRMGSQFQEPEQPMQSLDTIMQIISEATIPTVRNRCLDDFMADNLDLDDDMDDFDSESEIDVDSSGEIVYAL

binding [2]: binds | binding [3]: binds | binding [4]: binds
B2: AtPP2-B11 (phloem protein 2-B11), yeast two-hybrid fusion (protein, UniProt Q949S5 1-257)
chain: T1 sequence

binding [5]: binds | binding [6]: binds | binding [7]: binds
B3: AtPP2-B11-YFP^N (protein, UniProt Q949S5 1-257)
chain: T1 sequence

binding [8]: binds
B4: AtPP2-B11-Myc (protein, UniProt Q949S5 1-257)
chain: T1 sequence
